To fix the notation:
B1: CCUUACU (DNA:RNA)
RNA: GGGAGACCGGAAUUCAGAUUGUCCCCUUACUUUAAAUCCCGUCGUAGCCACCA
DNA 1: CAATCTGAATTCCGGTCTCCC
DNA 2: TGGTGGCTACGACGGGATT
B2: CACGCAA (DNA:RNA)
RNA: B1 RNA with C26A, U27C, U28G, A29C, C30A, U31A
DNA 1: CAATCTGAATTCCGGTCTCCC
DNA 2: TGGTGGCTACGACGGGATT
B3: UUAGCUC (DNA:RNA)
RNA: GGGAGACCGGAAUUCAGAUUGUCCUUAGCUCUUAAAUCCCGUCGUAGCCACCA
DNA 1: CAATCTGAATTCCGGTCTCCC
DNA 2: TGGTGGCTACGACGGGATT
B4: GGCCUGG (DNA:RNA)
RNA: GGGAGACCGGAAUUCAGAUUGUCCGGCCUGGUUAAAUCCCGUCGUAGCCACCA
DNA 1: CAATCTGAATTCCGGTCTCCC
DNA 2: TGGTGGCTACGACGGGATT
B5: UGGACAC (DNA:RNA)
RNA: B3 RNA with U26G, A27G, G28A, U30A
DNA 1: CAATCTGAATTCCGGTCTCCC
DNA 2: TGGTGGCTACGACGGGATT
B6: UGUCCCC (DNA:RNA)
RNA: B3 RNA with U26G, A27U, G28C, U30C
DNA 1: CAATCTGAATTCCGGTCTCCC
DNA 2: TGGTGGCTACGACGGGATT
B7: GGCGAAA (DNA:RNA)
RNA: B4 RNA with C28G, U29A, G30A, G31A
DNA 1: CAATCTGAATTCCGGTCTCCC
DNA 2: TGGTGGCTACGACGGGATT
B8: AAGUUUA (DNA:RNA)
RNA: B1 RNA with C25A, C26A, U27G, A29U, C30U, U31A
DNA 1: CAATCTGAATTCCGGTCTCCC
DNA 2: TGGTGGCTACGACGGGATT
B9: UAACACU (DNA:RNA)
RNA: B1 RNA with C25U, C26A, U27A, U28C
DNA 1: CAATCTGAATTCCGGTCTCCC
DNA 2: TGGTGGCTACGACGGGATT
B10: GUGUCUG (DNA:RNA)
RNA: B3 RNA with U25G, A27G, G28U, C31G
DNA 1: CAATCTGAATTCCGGTCTCCC
DNA 2: TGGTGGCTACGACGGGATT
B11: CCCUCAG (DNA:RNA)
RNA: B1 RNA with U27C, A29C, C30A, U31G
DNA 1: CAATCTGAATTCCGGTCTCCC
DNA 2: TGGTGGCTACGACGGGATT
B12: GGUUCAU (DNA:RNA)
RNA: B1 RNA with C25G, C26G, A29C, C30A
DNA 1: CAATCTGAATTCCGGTCTCCC
DNA 2: TGGTGGCTACGACGGGATT
B13: GACUUCG (DNA:RNA)
RNA: B4 RNA with G26A, C28U, G30C
DNA 1: CAATCTGAATTCCGGTCTCCC
DNA 2: TGGTGGCTACGACGGGATT
B14: AAUCAAU (DNA:RNA)
RNA: B1 RNA with C25A, C26A, U28C, C30A
DNA 1: CAATCTGAATTCCGGTCTCCC
DNA 2: TGGTGGCTACGACGGGATT
B15: GUGUGGU (DNA:RNA)
RNA: B1 RNA with C25G, C26U, U27G, A29G, C30G
DNA 1: CAATCTGAATTCCGGTCTCCC
DNA 2: TGGTGGCTACGACGGGATT
B16: ACAGUCG (DNA:RNA)
RNA: B1 RNA with C25A, U27A, U28G, A29U, U31G
DNA 1: CAATCTGAATTCCGGTCTCCC
DNA 2: TGGTGGCTACGACGGGATT
B17: CAAAUAG (DNA:RNA)
RNA: B4 RNA with G25C, G26A, C27A, C28A, G30A
DNA 1: CAATCTGAATTCCGGTCTCCC
DNA 2: TGGTGGCTACGACGGGATT
B18: CGAUCAG (DNA:RNA)
RNA: B1 RNA with C26G, U27A, A29C, C30A, U31G
DNA 1: CAATCTGAATTCCGGTCTCCC
DNA 2: TGGTGGCTACGACGGGATT
B19: AAAAUCA (DNA:RNA)
RNA: B1 RNA with C25A, C26A, U27A, U28A, A29U, U31A
DNA 1: CAATCTGAATTCCGGTCTCCC
DNA 2: TGGTGGCTACGACGGGATT
B20: UCGCAUA (DNA:RNA)
RNA: B1 RNA with C25U, U27G, U28C, C30U, U31A
DNA 1: CAATCTGAATTCCGGTCTCCC
DNA 2: TGGTGGCTACGACGGGATT
B21: UAUUCCG (DNA:RNA)
RNA: B1 RNA with C25U, C26A, A29C, U31G
DNA 1: CAATCTGAATTCCGGTCTCCC
DNA 2: TGGTGGCTACGACGGGATT
B22: UCUCAUG (DNA:RNA)
RNA: B1 RNA with C25U, U28C, C30U, U31G
DNA 1: CAATCTGAATTCCGGTCTCCC
DNA 2: TGGTGGCTACGACGGGATT
B23: CCGGAAA (DNA:RNA)
RNA: B1 RNA with U27G, U28G, C30A, U31A
DNA 1: CAATCTGAATTCCGGTCTCCC
DNA 2: TGGTGGCTACGACGGGATT
B24: AGUACUA (DNA:RNA)
RNA: B3 RNA with U25A, U26G, A27U, G28A, C31A
DNA 1: CAATCTGAATTCCGGTCTCCC
DNA 2: TGGTGGCTACGACGGGATT
B25: UUGCUGG (DNA:RNA)
RNA: B4 RNA with G25U, G26U, C27G
DNA 1: CAATCTGAATTCCGGTCTCCC
DNA 2: TGGTGGCTACGACGGGATT
B26: GAUCCUG (DNA:RNA)
RNA: B4 RNA with G26A, C27U, U29C, G30U
DNA 1: CAATCTGAATTCCGGTCTCCC
DNA 2: TGGTGGCTACGACGGGATT
B27: AGGACAG (DNA:RNA)
RNA: B4 RNA with G25A, C27G, C28A, U29C, G30A
DNA 1: CAATCTGAATTCCGGTCTCCC
DNA 2: TGGTGGCTACGACGGGATT
B28: AGUGCAA (DNA:RNA)
RNA: B3 RNA with U25A, U26G, A27U, U30A, C31A
DNA 1: CAATCTGAATTCCGGTCTCCC
DNA 2: TGGTGGCTACGACGGGATT
B29: CCGCGGG (DNA:RNA)
RNA: B4 RNA with G25C, G26C, C27G, U29G
DNA 1: CAATCTGAATTCCGGTCTCCC
DNA 2: TGGTGGCTACGACGGGATT
B30: UGAGGGA (DNA:RNA)
RNA: B3 RNA with U26G, C29G, U30G, C31A
DNA 1: CAATCTGAATTCCGGTCTCCC
DNA 2: TGGTGGCTACGACGGGATT
B31: GAGCUAU (DNA:RNA)
RNA: B4 RNA with G26A, C27G, G30A, G31U
DNA 1: CAATCTGAATTCCGGTCTCCC
DNA 2: TGGTGGCTACGACGGGATT

Positions count from the first letter of the chain named. The list shows a part of the results.

The experiment concerns the target T1, RBFOX1 RRM (Homo sapiens, UniProt Q9NWB1 109-208).
T1 sequence: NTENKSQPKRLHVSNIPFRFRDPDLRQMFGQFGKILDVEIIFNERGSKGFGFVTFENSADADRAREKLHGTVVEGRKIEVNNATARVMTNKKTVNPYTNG
Kind of experiment: EMSA; HiTS-Eq, 1 nM pool, 10 min; buffer printed only for the single-RNA assays: 10 mM Tris pH 7.5, 150 mM NaCl, 3.4 mM EDTA, 0.001% NP-40, 30 C. The settings on record: tags: His6 N-terminal (pET28a); label: 5' 32P. In outline:
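Purified RbFox RRM (wild type or mutant) was equilibrated for 10 min in 50 µL with 1 nM of a 5′-radiolabelled pool of RNA with 7 randomized nucleotides, its flanks annealed to DNA oligonucleotides, across increasing protein concentrations. Free RNA was separated by 8% native PAGE, excised, reverse-transcribed, PCR-barcoded and sequenced on an Illumina HiSeq 2500. Relative association constants came from read-count changes of each variant against the control reaction, normalised to the cognate motif.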
(A gel shift assay detects complexes by their altered migration in electrophoresis.)
For the molecule B1, the binding signal was 0.00331 KA relative to UGCAUGU.

For the molecule B2, the binding signal was 0.00431 KA relative to UGCAUGU.

With B3, the binding signal is 0.00702 KA relative to UGCAUGU. The figure for B4 is 0.0202 KA relative to UGCAUGU; for B5 it is 0.0159 KA relative to UGCAUGU; for B6 it is 0.00602 KA relative to UGCAUGU. The same measure for B7: 0.00956 KA relative to UGCAUGU; for B8: 0.00156 KA relative to UGCAUGU; for B9: 0.0028 KA relative to UGCAUGU. The figure for B10 is 0.0236 KA relative to UGCAUGU; for B11 it is 0.00616 KA relative to UGCAUGU. For the molecule B12, the binding signal was 0.00857 KA relative to UGCAUGU. For B13, the binding signal is 0.0143 KA relative to UGCAUGU. The same measure for B14: 0.000959 KA relative to UGCAUGU; for B15: 0.019 KA relative to UGCAUGU; for B16: 0.00735 KA relative to UGCAUGU. For the molecule B17, the binding signal is 0.00168 KA relative to UGCAUGU. The figure for B18 is 0.012 KA relative to UGCAUGU; for B19 it is 0.000438 KA relative to UGCAUGU.

With B20, the binding signal was 0.00838 KA relative to UGCAUGU. The figure for B21 is 0.0063 KA relative to UGCAUGU; for B22 it is 0.0075 KA relative to UGCAUGU.

For the molecule B23, the binding signal was 0.00992 KA relative to UGCAUGU.

With B24, the binding signal is 0.00309 KA relative to UGCAUGU. The same measure for B25: 0.0302 KA relative to UGCAUGU; for B26: 0.0145 KA relative to UGCAUGU. On to B27, for which the binding signal is 0.0256 KA relative to UGCAUGU. The same measure for B28: 0.00816 KA relative to UGCAUGU.

With B29, the binding signal is 0.00626 KA relative to UGCAUGU. The same measure for B30: 0.00562 KA relative to UGCAUGU; for B31: 0.00977 KA relative to UGCAUGU.

Values taken from article PMC9911399, “Two distinct binding modes provide the RNA-binding protein RbFox with extraordinary sequence specificity”.
